Results published in PubChem BioAssay AID1345083 (National Center for Advancing Translational Sciences (NCATS), 2018).
About 6,200 (6.6%) of roughly 94,000 compounds were called active. This list was built around the results that the source calls inconclusive (neither active nor inactive); the mix of calls is not that of the screen. Calls come from the whole dose curve; as a rule, active = well fitted inhibition curve with a large enough effect; inconclusive = small, poorly fitted or top-dose-only effect; inactive = flat fitted curve, though single readings scatter. Potencies of inconclusive entries are doubtful fits and often do not repeat.

test: Cytotoxic Profiling in HEK 293 Cell Line of Diverse Libraries Using Quantitative High-Throughput Screening; details: HEK 293 viability, ATP luminescence (CellTiter-Glo), 48-72 h; series mostly up to 115 µM; note: nearly all actives have a fitted effect of over 60% in size
Method in brief: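 250 HEK 293 cells/well; compound by pintool; incubated 48 or 72 hr at 37 degree Celsius; CellTiter-Glo added, 10 min RT, luminescence imaged.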
Potency is the fitted concentration of half-maximal effect; tags give direction and shape of the fitted curve.

Compound | Potency
O=C(c1ccc(C(F)(F)F)cc1)N1CCn2c(nnc2-c2ccncc2)C1 | inactive
O=C(Nc1ccc(C2(C(=O)NCc3ccc(F)c(Cl)c3)CCC2)cc1)C1CC1 | inconclusive: 35.5 µM [inhibitor, full curve, poor fit]
CCC(CNC(=O)c1csc2nc(-c3ccccc3Cl)cn12)N(C)C (configuration not stated) | inconclusive: 50.1 µM [inhibitor, partial curve, poor fit]
COc1ccc(CC(=O)NC2CCCc3c2[nH]c2c(Cl)cccc32)cc1OC (configuration not stated) | active: 28.2 µM
N#Cc1ccc(C(=O)Nc2cccc(-c3nnc4n3CCCC4)c2)cc1 | inconclusive: 100 µM [inhibitor, single point]
CC(C)(C)c1nnc2ccc(C(=O)NC3CC3)cn12 | inactive
Cc1ccccc1C(=O)NC1CCN(c2cc(-c3cccs3)[nH]n2)C1 (configuration not stated) | inconclusive: 79.4 µM [inhibitor, partial curve, poor fit]
COc1ccc(C(C)NC(=O)c2noc(-c3ccccc3F)n2)cc1OC (configuration not stated) | inactive
Cn1ncc2c(C(=O)NCc3ccccn3)cc(-c3ccc(C(F)(F)F)cc3)nc21 | inconclusive: 56.2 µM [inhibitor, partial curve, poor fit]
O=C(c1cncc(N2CCCC(CCc3cccc(F)c3)C2)n1)N1CCCCC1 (configuration not stated) | inconclusive: 35.5 µM [inhibitor, partial curve, poor fit]
O=C(Cc1cccc(F)c1)N1CCC2(CC1)NC(=O)N(c1cccc(F)c1)N2 | inconclusive: 44.7 µM [inhibitor, partial curve, poor fit]
COc1ccc(CN2CCCC3(CC(c4cccc(C(F)(F)F)c4)=NO3)C2)cc1 (configuration not stated) | inconclusive: 79.4 µM [inhibitor, partial curve, poor fit]
OC1(CN2CCCCC2)CCN(c2cccc(C(F)(F)F)n2)C1 (configuration not stated) | inactive
CC1(C)C[C@H](NCC2CCCCC2)[C@@]2(CCC(=O)N3CCCC3)CC[C@](C)(O)C[C@@H]12 | inconclusive: 50.1 µM [inhibitor, partial curve, poor fit]
CC1(C)CC(NC(=O)c2cc(Cn3cnc4ccccc43)[nH]n2)CC(C)(C)N1 | inactive
COc1ccc(Nc2ccnc(N3CCC(NC(=O)N(C)C)CC3)n2)cc1 | inconclusive: 50.1 µM [inhibitor, partial curve, poor fit]
O=C(Nc1cccc(Cl)c1)c1ccc2nc(-c3cccnc3)oc2c1 | inactive
Cn1nc(C2CCCN(C(=O)NCc3ccccc3)C2)n(C2CCCC2)c1=O (configuration not stated) | inactive
CCN(Cc1ccccc1)C(=O)CCC[C@@H]1[C@H]2CCCN3CCC[C@@H](CN1C(=O)c1ccccc1)[C@@H]23 | inconclusive: 39.8 µM [inhibitor, partial curve]
Cc1ccc(C#N)c(N2CCCC(c3nccn3CC3CCC3)C2)n1 (configuration not stated) | inconclusive: 44.7 µM [inhibitor, partial curve, poor fit]
CC(C)C[C@@H]1N[C@H](C(=O)NC(C)C)Cc2cn(Cc3ccccn3)c3cccc1c23 | active: 28.2 µM

Compound | Potency
Cc1ccsc1C(=O)N1CCCn2cc(-c3ccccc3)nc21 | inconclusive: 70.8 µM [inhibitor, single point]
COc1ccc(-c2ccc3ncc(Nc4cccc(N[S+](C)(=O)[O-])c4)n3n2)cc1OC | inconclusive: 44.7 µM [inhibitor, partial curve]
Cc1ccc(C(=O)N(C)Cc2ccc(-c3ccccc3)cc2)cc1 | active: 89.1 µM
COc1cc2c(cc1OC)C(CNC(=O)Cc1ccccc1)N(C(=O)NC(C)C)CC2 (configuration not stated) | inconclusive: 89.1 µM [inhibitor, single point]
CC(C)c1cc(C(=O)NCC2OCCc3ccccc32)nc2ncnn12 (configuration not stated) | inactive
O=C(c1cc(F)ccc1F)N1CCC(Cc2nc(-c3ccc(F)cc3)no2)CC1 | inconclusive: 25.1 µM [inhibitor, partial curve, poor fit]
COc1ccc(-c2noc([C@@H]3CCCN3C(=O)CCc3ccccc3)n2)cc1OC | inconclusive: 56.2 µM [inhibitor, partial curve, poor fit]
COc1ccc(-c2nn(-c3ccccc3)cc2CN2CCC(F)CC2)c(F)c1 | inconclusive: 50.1 µM [inhibitor, partial curve, poor fit]
CCNC(=O)N1CCCCCC1c1nc(C2CC2)no1 (configuration not stated) | inactive
CC1=C[C@@H](CNS(=O)(=O)Cc2ccccc2)[C@H](C(C)C)C[C@H]1CC(=O)N1CCN(C)CC1 | inconclusive: 79.4 µM [inhibitor, partial curve, poor fit]
COc1ccc(-c2cnc3[nH]cc(CC(=O)NCc4cnccn4)c3c2)cc1 | inconclusive: 112 µM [inhibitor, partial curve, poor fit]
COc1ccc(-c2nc(CN3CCC(CO)CC3)c(C)o2)c2ccccc12 | active: 20 µM
Cc1ccc(C(=O)N2C(C(=O)NCC3CCCO3)COC23CCN(C(=O)c2cccs2)CC3)cc1 (configuration not stated) | inconclusive: 89.1 µM [inhibitor, single point]
O=C1[C@@H]2C[C@@H](CN2Cc2ccc(Cl)cc2)Oc2ccccc2N1CC1CC1 | active: 89.1 µM
CNC(=O)[C@@H]1C[C@H](Oc2cccnc2)CN1C(=O)C(C)C | inactive
CC(C)NC(=O)N(C1CC1)C1CCOC2(CCN(C(=O)c3ccc4nc[nH]c4c3)CC2)C1 (configuration not stated) | inactive
O=C1c2c(-c3nc(-c4ccsc4)no3)nnn2CCN1Cc1cc(F)cc(F)c1 | inconclusive: 44.7 µM [inhibitor, partial curve]
CC(C)c1nc(CNC(=O)c2ccc(NC3CCCCC3)nc2)no1 | inactive
COC(=O)COc1cccn2c(=O)c(-c3cc(C)n(-c4ccc(Cl)c(Cl)c4)n3)c(C)nc12 | inactive
O=c1cc(N2CCOCC2)oc2c(N3CCOCC3)nccc12 | inconclusive: 112 µM [inhibitor, partial curve, poor fit]
O=C(C1CCCC1)N1CCCN(c2ccc3nnc(-c4ccccc4)n3n2)CC1 | inconclusive: 89.1 µM [inhibitor, single point]
